# Data from PubChem BioAssay AID504845 (National Center for Advancing Translational Sciences (NCATS), 2011).
# Among all 390,000 compounds or so, about 150 (0.038%) were called active. Inconclusive results (about 3%) are left out. The call rests on the fitted dose curve; in most records, active means well fitted inhibition curve with a large enough effect; inconclusive means small, poorly fitted or top-dose-only effect; inactive means no such curve, though single readings can be large or run the other way. The list shows a part of the results, in another mix than the full data. The source holds several records for some structures; these can differ, active in one and inactive in another.
# Biological target: Regulator of G-protein signaling 4 (Homo sapiens) (UniProt P49798)
# Sequence of UniProt P49798 (P49798 whole entry, looked up): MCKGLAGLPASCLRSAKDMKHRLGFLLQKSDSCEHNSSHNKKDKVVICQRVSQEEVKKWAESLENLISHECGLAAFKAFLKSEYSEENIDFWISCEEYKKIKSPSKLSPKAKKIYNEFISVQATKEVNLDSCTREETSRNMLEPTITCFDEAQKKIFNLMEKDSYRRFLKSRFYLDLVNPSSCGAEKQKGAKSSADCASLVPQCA
# Experiment: Inhibitors of Regulator of G Protein Signaling (RGS) 4: qHTS; further: nearly all actives have a fitted effect of over 75% in size
# Details: Transcreener GDP fluorescence polarization, RGS4-accelerated GTP hydrolysis; series mostly up to 114 µM; activity change, negative = inhibition: at the top concentration
# Source text: G-protein-coupled receptors (GPCRs) are well-established targets for drug discovery and development. Members of the "regulator of G-protein signaling" (RGS)-protein superfamily have recently emerged as critical modulators of specific GPCR signaling pathways. […] Combining specific RGS domain inhibitors with existing GPCR agonists should potentiate cellular responses and could also increase the specificity of action of existing therapeutics. Small molecule modulators of RGS domain activity should also have clinical utility in inhibiting or potentiating the actions of endogenous GPCR agonists. In particular, the diversity of RGS proteins with highly localized and dynamically regulated distributions in the human brain makes this family of proteins attractive targets for pharmacotherapy of central nervous system (CNS) disorders such as Parkinson's disease, schizophrenia, and anxiety.
# This assay was used to screen the NIH Molecular Libraries Small Molecule Repository (MLSMR) in order to identify a small molecule that inhibits RGS4.
# NIH Chemical Genomics Center [NCGC]
# NIH Molecular Libraries Probe Centers Network [MLPCN]
# Assay Submitter (PI): David Siderovski, University of North Carolina Chapel Hill (School of Medicine)
# Two microliters of 500nM (2x working concentration) is dispensed into black medium-binding solid-bottom Kalypsys plates. Then with the Kalypsys pintool 23nl of control and compounds are transferred; the control compound is […] CCG-4986 (working concentration). After a 10 minute incubation at room temperature 2ul of antibody is added with the Kalypsys dispenser; (-)RGS4/Transcreener GDP solution in columns 3 and 4 which consisted of 10nM (2x working concentration) Alexa633, 20uM GTP, and 20 ug/ml GDP antibody and (+)RGS4/Transcreener GDP solution in columns 1,2, and 5 to 48 which consists of 900nM RGS4 (2x working concentration), 10nM Alexa633, 20 ug/ml GDP antibody. The plate is centrifuged at 1000 RPM for 15 seconds to remove any possible bubbles and then incubated for 5 minutes at ambient room temperature. An initial fluorescent polarization read (620 nm/688 nm) is performed on the Envision before the plate is incubated for 90 minutes at 30 deg C at a relative humidity of 80%. The plate is once more centrifuged at 1000 RPM for 15 seconds and another Envision fluorescent polarization (620 nm/688 nm) read is carried out.
# On the % scale 0 is the no-effect control and ±100 the full control effect; potency means the concentration at half of the fitted maximal effect.
Structure (SMILES),"activity change, negative = inhibition",Potency
Nc1ccc(CCN2CCN(c3cccc(C(F)(F)F)c3)CC2)cc1,inactive: -2.53%,
C=C1C(O)[C@@H]2O[C@]3(CC[C@H](/C=C/C(C)[C@@H]4CC(C)=CC5(O[C@H](C[C@@](C)(O)C(=O)O)CCC5O)O4)O3)CC[C@H]2O[C@@H]1C(O)CC(C)[C@H]1OC2(CCCCO2)CCC1C (stereo not given in full),inactive: 5.42%,
N.N.N.N.N.N.N.N.N.N.N.N.N.N.O.O.[Ru+4].[Ru+5].[Ru+5],,active: 18.9 µM
CC(C)C[C@H]1C(=O)N2CCC[C@H]2[C@]2(O)O[C@](NC(=O)[C@@H]3C=C4c5cccc6[nH]c(Br)c(c56)CC4N(C)C3)(C(C)C)C(=O)N12 (stereo not given in full),inactive: -2.26%,
CC12C=CC(=O)C=C1CCC1C2=CCC2(C)C1CC[C@@H]2C(=O)CN1CCN(c2cc(N3CCCC3)nc(N3CCCC3)n2)CC1 (stereo not given in full),inactive: -10% [at 56.9 µM],
C#CCN(C)[C@H](C)Cc1ccccc1,,inactive
C[N+]1(C)C2CC[C@H]1CC(OC(=O)C(CO)c1ccccc1)C2 (stereo not given in full),inactive: -3.22%,
C[C@]12CCC(=O)C=C1CC[C@@H]1C2CC[C@]2(C)C(=O)CCC12 (stereo not given in full),inactive: -20.5%,
O=S1(=O)N(CCN2CC=C(c3c[nH]c4cc(F)ccc34)CC2)c2cccc3c2N1CCC3,inactive: -15.3%,
NCCCNCCSP(=O)(O)O,inactive: -12.1% [at 56.9 µM],
NC1C=CC=C(C(=O)O)C1 (stereo not given),inactive: 15.8%,
C[Se]C[C@@H](N)C(=O)O,inactive: -48.8%,
CC(C)NC[C@H](O)COc1cccc2[nH]ccc12,,inactive
C#CCOC(=O)C1=CCCN(C)C1,,inactive
c1ccc(C2CC2)c(OCC2=NCCN2)c1,,inactive
CCCC(=O)OCC[N+](C)(C)C,,inactive
CC[N+](CC)(CC)CCOc1cccc(OCC[N+](CC)(CC)CC)c1OCC[N+](CC)(CC)CC,inactive: -34.7%,
O=c1c(O)c(-c2ccc(O)c(O)c2)oc2cc(O)cc(O)c12,inactive: -11.4%,
CCOC(=O)Nc1ccc(NCc2ccc(F)cc2)nc1N,,active: 8.43 µM
CNC(=O)Oc1ccc2c(c1)[C@]1(C)CCN(C)[C@@H]1N2C,,inactive
Cc1cc(O)c2c(c1)C(=O)c1cc(O)cc(O)c1C2=O,inactive: 21.1%,
CN(C)C(=O)Oc1cccc([N+](C)(C)C)c1,,inactive
COc1ccc2[nH]cc(C3=CCNCC3)c2c1,inactive: 440% [at 56.9 µM],

Structure (SMILES),"activity change, negative = inhibition",Potency
CC(C)c1ccc(N2C(=O)NC(=O)/C(=C\c3cnc(-c4ccccc4)nc3)C2=O)cc1,inactive: 4.13% [at 11.4 µM],
C=CC[N+]1(C)CC[C@]23c4c5ccc(O)c4O[C@H]2C(=O)CC[C@@]3(O)[C@H]1C5 (stereo not given in full),inactive: -12.7%,
O=C(O)c1cc[c]([Hg][Cl])cc1,inactive: -143%,
CNCCC(Oc1ccc(C(F)(F)F)cc1)c1ccccc1 (stereo not given),,inactive
Clc1ccc(C(c2ccc(Cl)cc2)n2cc[n+](CC(OCc3ccc(Cl)cc3Cl)c3ccc(Cl)cc3Cl)c2)cc1 (stereo not given),inactive: -32.3%,
CC(=O)OC1C([N+]2(C)CCCCC2)C[C@H]2C3CC[C@H]4C[C@H](OC(C)=O)C([N+]5(C)CCCCC5)CC4(C)C3CCC12C (stereo not given in full),inactive: 40% [at 56.9 µM],
O=P1(N(CCCl)CCCl)NCCCO1 (stereo not given),inactive: 1.04%,
CCCN[C@@H]1CCc2c(OC)cccc2[C@@H]1C,inactive: 73.2% [at 56.9 µM],
CN(C)[C@@H]1C(=O)C(C(N)=O)=C(O)[C@@]2(O)C(=O)C3=C(O)c4c(O)cccc4[C@@](C)(O)[C@H]3[C@H](O)[C@@H]12,inactive: 11%,
Cc1ccc(NC(=O)Cn2c(=O)oc3ccccc32)cc1C,inactive: -13.1%,
NC(N)=Nc1ccc2[nH]c3c(c2c1)C[C@@]1(O)[C@H]2Cc4ccc(O)c5c4[C@@]1(CCN2CC1CC1)C3O5 (stereo not given in full),inactive: -2.44%,
O=C(O)Cc1cnc[nH]1,,inactive
CN1C2CCC1CC(OC(=O)c1cc(Cl)cc(Cl)c1)C2 (stereo not given),,inactive
C[N+]1(C)C2CCC1CC(OC(=O)c1c[nH]c3ccccc13)C2 (stereo not given),inactive: -19.4%,
CNC(=O)Oc1ccc2c(c1)[C@]1(C)CCN(C)C1N2C (stereo not given in full),inactive: 12.8%,
C[C@]12CCC3C(CC[C@H]4C[C@H](O)CC[C@]34C)C1CC[C@@H]2C(=O)CO (stereo not given in full),inactive: 1.59% [at 56.9 µM],
Clc1ccc(COC(Cn2ccnc2)c2ccc(Cl)cc2Cl)c(Cl)c1 (stereo not given),inactive: -20.7%,
CC(=O)[C@H]1CC[C@H]2[C@@H]3CC=C4C[C@@H](OS(=O)(=O)O)CC[C@]4(C)[C@H]3CC[C@]12C,inactive: -17.5%,
CC(C)CC(NP(=O)(O)O[C@@H]1O[C@@H](C)[C@H](O)[C@@H](O)[C@H]1O)C(=O)NC(Cc1c[nH]c2ccccc12)C(=O)O (stereo not given in full),inactive: 12.8% [at 56.9 µM],
C/C(O)=C(\C#N)C(=O)Nc1cc(Br)ccc1Br,,inactive
NN=C(N)N,,inactive
C[C@]12CCC(=O)C=C1CC[C@@H]1[C@@H]2CC[C@]2(C)C(=O)CC[C@@H]12,inactive: 11.3%,
